# PubChem BioAssay AID504332 (National Center for Advancing Translational Sciences (NCATS), 2011)
# The campaign covered roughly 350,000 compounds. About 31,000 (8.9%) were called active. This list was built around the results that the source calls inconclusive (neither active nor inactive); the mix of calls is not that of the screen. The call rests on the fitted dose curve; in most records, active means well fitted inhibition curve with a large enough effect; inconclusive means small, poorly fitted or top-dose-only effect; inactive means no such curve, though single readings can be large or run the other way. A potency beside an inconclusive call is a rough fit, not a confirmed value.
# Target: Histone-lysine N-methyltransferase EHMT2 (Homo sapiens) (UniProt Q96KQ7)
# Assay: qHTS Assay for Inhibitors of Histone Lysine Methyltransferase G9a; further: nearly all actives have a fitted effect of over 75% in size
# Conditions: G9a H3K9 monomethylation, AlphaScreen, 2 h; activity, negative = inhibition: at 59 µM (top of the series) unless noted
# Outline: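 Methyltransferase reactions run at room temperature for 2 h (20 nM enzyme, 500 nM biotin-H3K9 peptide, 20 uM SAM) after a 15 min compound preincubation; product detected by AlphaScreen beads and anti-H3K9me1 antibody.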
# On the % scale 0 is the no-effect control and ±100 the full control effect; potency means the concentration at half of the fitted maximal effect; tags describe the fitted curve by direction and shape.
# Chain of UniProt Q96KQ7 (Q96KQ7 whole entry, looked up): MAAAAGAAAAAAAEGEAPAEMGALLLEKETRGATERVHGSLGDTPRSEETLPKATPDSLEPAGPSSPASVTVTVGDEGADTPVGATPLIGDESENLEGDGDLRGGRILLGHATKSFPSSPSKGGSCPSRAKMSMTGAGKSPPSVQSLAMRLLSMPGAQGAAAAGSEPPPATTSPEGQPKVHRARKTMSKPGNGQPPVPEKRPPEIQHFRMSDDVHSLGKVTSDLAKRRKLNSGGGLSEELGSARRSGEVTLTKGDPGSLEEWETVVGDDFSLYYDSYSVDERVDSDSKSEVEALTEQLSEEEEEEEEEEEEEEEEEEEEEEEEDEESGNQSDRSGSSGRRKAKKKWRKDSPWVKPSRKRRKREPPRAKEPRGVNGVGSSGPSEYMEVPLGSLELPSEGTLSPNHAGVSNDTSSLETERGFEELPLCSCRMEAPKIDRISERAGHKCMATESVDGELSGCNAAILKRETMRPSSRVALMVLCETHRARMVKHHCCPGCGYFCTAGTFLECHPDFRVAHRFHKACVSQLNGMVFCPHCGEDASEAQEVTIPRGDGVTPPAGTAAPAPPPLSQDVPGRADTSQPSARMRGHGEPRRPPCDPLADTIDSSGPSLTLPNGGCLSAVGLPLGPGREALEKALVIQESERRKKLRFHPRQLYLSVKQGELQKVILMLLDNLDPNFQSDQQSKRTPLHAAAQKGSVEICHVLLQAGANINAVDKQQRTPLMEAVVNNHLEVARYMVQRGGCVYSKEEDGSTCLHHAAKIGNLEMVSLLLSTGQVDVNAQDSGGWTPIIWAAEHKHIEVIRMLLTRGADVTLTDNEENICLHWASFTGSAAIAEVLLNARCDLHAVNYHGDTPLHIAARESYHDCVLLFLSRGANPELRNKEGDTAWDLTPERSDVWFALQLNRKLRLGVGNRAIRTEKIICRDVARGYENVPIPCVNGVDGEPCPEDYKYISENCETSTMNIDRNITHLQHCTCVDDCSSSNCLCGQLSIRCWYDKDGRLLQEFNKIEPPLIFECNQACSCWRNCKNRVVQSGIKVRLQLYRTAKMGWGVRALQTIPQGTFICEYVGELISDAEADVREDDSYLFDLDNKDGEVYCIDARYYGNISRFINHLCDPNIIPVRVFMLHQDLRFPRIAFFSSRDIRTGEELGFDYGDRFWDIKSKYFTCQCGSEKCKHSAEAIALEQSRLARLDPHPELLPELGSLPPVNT
Structure (SMILES),Potency,"activity, negative = inhibition"
COc1ccc(Sc2cc(C(F)(F)F)nc(-c3ccccn3)n2)cc1,"inconclusive: 89.1 µM [inhibitor, single point]",–
COc1ccccc1-n1c(=O)c2c3c(sc2n2c(=S)[nH]nc12)CCC3,active: 3.16 µM,–
CCCC(=O)NC(c1cccs1)c1cc([N+](=O)[O-])c2cccnc2c1O (centres undefined),"inconclusive: 11.2 µM [inhibitor, partial curve, poor fit]",–
COc1ccc(/C=N/NC(=O)c2nc(-c3ccccc3)cc(-c3ccccc3)n2)cc1OC,–,inactive: 24.9%
COCCCNCCOCCSc1ccc(Cl)cc1,"inconclusive: 10 µM [inhibitor, partial curve, poor fit]",–
CC1(C)CC(=O)C(=Cc2cn(CCC#N)nc2-c2ccc(F)cc2)C(=O)C1,active: 10 µM,–
C=CCn1c(SCC(=O)N2CCc3ccccc3C2)nc2sc(C)c(C)c2c1=O,"inconclusive: 31.6 µM [inhibitor, single point]",–
COC(=O)c1ccc2c(=O)n(Cc3ccc(C(=O)NCCCN4CCOCC4)cc3)c(=S)[nH]c2c1,"inconclusive: 70.8 µM [inhibitor, partial curve, poor fit]",–
NC(=O)c1nsc(C(=O)N(c2ccccc2)C(C(=O)NC2CCCCC2)c2ccc(O)cc2)c1N (centres undefined),–,inactive: 9.81% [at 102 µM]
Cc1ccc(S(=O)(=O)NCC(=O)N(CC2CCCO2)C(C(=O)NC2CCCCC2)C(C)C)cc1 (centres undefined),–,inactive: 13.9% [at 102 µM]
C=CCOc1ccc(/C=C\c2nc(O)c([N+](=O)[O-])c(=O)[nH]2)cc1OCC,"inconclusive: 89.1 µM [inhibitor, single point]",–
Cc1ccc(NC(=O)c2sc(=S)n(-c3cc(C)ccc3F)c2N)cc1,active: 8.91 µM,–
CCOC(=O)c1ccc(NC2=CC(c3ccc(O)c(OCC)c3)N(c3ccc(C(=O)OCC)cc3)C2=O)cc1 (centres undefined),–,inactive: -1.77%
CC(C)OC(=O)C1C(=O)CC(C)(O)C(C(=O)OC(C)C)C1c1cccc(O)c1 (centres undefined),"inconclusive: 39.8 µM [inhibitor, single point]",–
Cc1cc(N/N=C/c2ccccc2)nc(N)n1,"inconclusive: 89.1 µM [inhibitor, partial curve, poor fit]",–
O=C(NCCSCc1ccccc1Cl)C1CCN(S(=O)(=O)Cc2ccccc2)CC1,"inconclusive: 8.91 µM [inhibitor, partial curve, poor fit]",–
Cc1ccc(O)c(N)c1,–,inactive: 9.7% [at 0.501 µM]
CCOCCCNC(=S)Nc1ccc(S(N)(=O)=O)cc1,active: 28.2 µM,–
O=C(c1ccc2[nH]c3c(c2c1)CCCC3)N1CCN(c2ccc(F)cc2)CC1,"inconclusive: 12.6 µM [inhibitor, single point]",–
O=C(Cc1ccc(F)cc1)N1CCC(c2nc3c(nnn3Cc3ccc(F)cc3)c(=O)[nH]2)CC1,"inconclusive: 12.6 µM [inhibitor, partial curve, poor fit]",–
CC(=O)Nc1ccc(OCC(O)Cn2c(C)nc3ccccc32)cc1 (centres undefined),"inconclusive: 89.1 µM [inhibitor, partial curve, poor fit]",–
COc1ccc(-c2c(-c3ccccc3OC)sc3ccccc23)cc1OC,–,inactive: -12.7% [at 102 µM]
COc1ccc(CNC(=O)COC(=O)c2n[nH]c3ccccc23)cc1OC,"inconclusive: 5.01 µM [inhibitor, full curve, poor fit]",–

Structure (SMILES),Potency,"activity, negative = inhibition"
CCOC(=O)c1c(C)oc2c1c(C(c1cccnc1)N1CCN(C)CC1)c(O)c1ccccc12 (centres undefined),"inconclusive: 0.501 µM [inhibitor, partial curve, poor fit]",–
CCC(C)(C)n1nnnc1C(c1cccs1)N1CCN(Cc2ccccc2)CC1 (centres undefined),"inconclusive: 89.1 µM [inhibitor, single point]",–
CCc1cccc(NC(=O)CCCN2C(=O)NC(C)(C)C2=O)c1,–,inactive: -5.29% [at 12.7 µM]
O=[N+]([O-])c1cccc(-c2ccc(C(=S)N3CCN(c4ccc(F)cc4)CC3)o2)c1,"inconclusive: 10 µM [inhibitor, partial curve, poor fit]",–
Cc1ccccc1C(=O)NNC1=NCCC1,active: 2 µM,–
Cc1ccc(CN(C(=O)COc2ccc(C(C)C)cc2)C2CCS(=O)(=O)C2)o1 (centres undefined),"inconclusive: 31.6 µM [inhibitor, partial curve, poor fit]",–
CCCn1c(=O)c2sccc2n2c(CCCC(=O)Nc3ccccc3OCC)nnc12,–,inactive: -2.83%
Cc1nc2ccccc2c(=O)n1/N=C/c1ccc(O)c(O)c1O,active: 1.26 µM,–
O=C(NCc1ccccn1)c1ccc(Cl)c(S(=O)(=O)Nc2ccccc2C(=O)NCc2ccccn2)c1,active: 50.1 µM,–
COC(=O)Cc1ccc(NC(=S)NCCSc2ccc(C)cc2)cc1,"inconclusive: 1.41 µM [inhibitor, partial curve, poor fit]",–
COC(=O)c1ccc(COC(=O)CNC(=O)c2ccc(C)s2)cc1,"inconclusive: 22.4 µM [inhibitor, partial curve, poor fit]",–
CCOc1cc(C2NN=C(c3ccccc3)S2)ccc1OCc1ccc(F)cc1 (centres undefined),"inconclusive: 20 µM [inhibitor, single point]",–
CC1(C)Cc2ccccc2C(/C(C#N)=N/O)=N1,"inconclusive: 89.1 µM [inhibitor, single point]",–
CC1(C)CC(=O)C(C=Nc2ccccc2)=C(O)C1,"inconclusive: 0.282 µM [inhibitor, full curve, poor fit]",–
Cc1ccccc1CN1C(=O)c2ccccc2S(=O)c2ccc(C(=O)NCc3ccc4c(c3)OCO4)cc21 (centres undefined),–,inactive: -5.94%
Cn1cccc1Cc1nnc(SCC(=O)NCc2ccco2)n1CCc1ccccc1,"inconclusive: 56.2 µM [inhibitor, partial curve, poor fit]",–
CN(CC(=O)Nc1ccc(F)c(F)c1F)C(=O)C1CC(=O)N(C2CCCC2)C1 (centres undefined),"inconclusive: 89.1 µM [inhibitor, partial curve, poor fit]",–
COCc1cc(C)nc2sc(C(=O)N3CCCCC3)c(N)c12,–,inactive: -9.15%
C/C=C/c1ccc(OCC(O)CN(C)Cc2ccc(SC)cc2)c(OC)c1 (centres undefined),active: 70.8 µM,–
OCCC1CN(CC2CCCCC2)CCN1CC1CCCCC1 (centres undefined),–,inactive: 19.6% [at 102 µM]
COc1ccc(CCn2c(-c3ccc(C(C)(C)C)cc3)n[nH]c2=S)cc1OC,"inconclusive: 3.55 µM [inhibitor, full curve, poor fit]",–
COc1ccc(/C=N/NS(=O)(=O)c2ccc(C)cc2)cc1OC(=O)c1ccccc1,–,inactive: -22.3%
CC(CCc1ccco1)NC(=O)Nc1cccc(F)c1 (centres undefined),active: 50.1 µM,–

Structure (SMILES),Potency,"activity, negative = inhibition"
CN1C(=O)CC(NNC(=O)c2ccc(Cl)cc2)C1=O (centres undefined),–,inactive: 34.4% [at 102 µM]
NC(=S)Nc1ccc2cc[nH]c2c1,"inconclusive: 63.1 µM [inhibitor, single point]",–
Cc1ccc(S(=O)(=O)c2nnn3c2nc(N2CCC(C(N)=O)CC2)c2cc(Cl)ccc23)cc1C,–,inactive: -29.1%
Cc1ccc(NS(=O)(=O)c2c(C)nc3sc(C)cn3c2=O)c(C)c1,–,inactive: -9.56%
CCCC(=O)NC(=S)Nc1ccc(NC(=O)C(C)C)c(OC)c1,"inconclusive: 79.4 µM [inhibitor, single point]",–
O=C(CN1CCC(C(O)(c2ccccc2)c2ccccc2)CC1)Nc1ccccc1,"inconclusive: 2.24 µM [inhibitor, full curve, poor fit]",–
COc1ccc(CC(=O)NNc2ncnc3c2cnn3C)cc1,active: 25.1 µM,–
COc1ccc2[nH]c(=O)c(CN(Cc3cccnc3)C(=O)Nc3ccccc3)cc2c1,"inconclusive: 89.1 µM [inhibitor, partial curve, poor fit]",–
CSc1nc(SCC(=O)NC(c2ccccc2)c2ccccc2)c2c3c(sc2n1)CN(C)CC3,"inconclusive: 44.7 µM [inhibitor, partial curve]",–
O=C(c1ccc2c(c1)[nH]c(=S)n1c3ccccc3nc21)N1CCN(c2ncccn2)CC1,"inconclusive: 1.12 µM [inhibitor, partial curve, poor fit]",–
CCN(CC)c1ccc(NC(=O)c2cnc3ccccn3c2=O)c(C)c1,active: 1.78 µM,–
S=C(NCc1ccco1)Nc1cccc(Cl)c1,–,inactive: -44%
O=C(O)/C(=C\c1ccc(-c2ccccc2[N+](=O)[O-])o1)c1ccccc1,"inconclusive: 1 µM [inhibitor, full curve, poor fit]",–
O=c1[nH]c2ccc([N+](=O)[O-])cc2nc1/C=C(\O)c1ccccc1,–,inconclusive: -78.8% [inhibitor]
Cc1nnsc1C(=O)NNC(=O)c1cccc2ccccc12,–,inactive: -4% [at 102 µM]
N#CCC(=O)Nc1cc(C(F)(F)F)ccc1N1CCOCC1,–,inactive: 24.6% [at 12.7 µM]
CC(C)N(C(C)C)S(=O)(=O)c1ccc(N2CCc3ccccc3C2)nc1,"inconclusive: 89.1 µM [inhibitor, single point]",–
CN(C)c1ccc(/C=N/NC(=O)CCCO)cc1,"inconclusive: 20 µM [inhibitor, partial curve, poor fit]",–
N#C/C(=C/c1cccs1)c1nc2ccccc2[nH]1,"inconclusive: 14.1 µM [inhibitor, partial curve]",–
O=C(O)c1ccc2c(=O)n(-c3ccc(F)c(Cl)c3)c(=S)[nH]c2c1,"inconclusive: 89.1 µM [inhibitor, single point]",–
COc1ccccc1N1CCN(C(=O)/C=C/c2ccc(C)cc2)CC1,"inconclusive: 0.708 µM [inhibitor, partial curve, poor fit]",–
CCCCc1cc(=O)oc2cc(C)cc(OCC(=O)N3C[C@H]4C[C@@H](C3)c3cccc(=O)n3C4)c12,–,inactive: 6.23% [at 12.7 µM]
Cc1nn(C2CCS(=O)(=O)C2)c2nc(C3CC3)cc(C(=O)Nc3cccc(C#N)c3)c12 (centres undefined),"inconclusive: 100 µM [inhibitor, single point]",–
